Measured values from PubChem BioAssay AID1460 (National Center for Advancing Translational Sciences (NCATS), 2008).
Several values for one entry are separate records, joined by “and”; a condition that tells them apart may be missing. Equal entries are not always repeated. About 5,800 (2.1%) of roughly 270,000 compounds were called active. The inconclusive results got no clear call from the source; some entries with a clear call stand among them for comparison. Calls come from the whole dose curve; as a rule, active = well fitted inhibition curve with a large enough effect; inconclusive = small, poorly fitted or top-dose-only effect; inactive = flat fitted curve, though single readings scatter. Potencies of inconclusive entries are doubtful fits and often do not repeat.

Each compound was assayed against Microtubule-associated protein tau (Homo sapiens) (UniProt P10636) (assay: qHTS for Inhibitors of Tau Fibril Formation, Thioflavin T Binding). Conditions: recombinant tau K18 P301L, heparin-induced fibrillization, ThT fluorescence; series mostly up to 57.4 µM; activity, negative = inhibition: at the top concentration.
UniProt P10636, sequence (P10636 whole entry, looked up): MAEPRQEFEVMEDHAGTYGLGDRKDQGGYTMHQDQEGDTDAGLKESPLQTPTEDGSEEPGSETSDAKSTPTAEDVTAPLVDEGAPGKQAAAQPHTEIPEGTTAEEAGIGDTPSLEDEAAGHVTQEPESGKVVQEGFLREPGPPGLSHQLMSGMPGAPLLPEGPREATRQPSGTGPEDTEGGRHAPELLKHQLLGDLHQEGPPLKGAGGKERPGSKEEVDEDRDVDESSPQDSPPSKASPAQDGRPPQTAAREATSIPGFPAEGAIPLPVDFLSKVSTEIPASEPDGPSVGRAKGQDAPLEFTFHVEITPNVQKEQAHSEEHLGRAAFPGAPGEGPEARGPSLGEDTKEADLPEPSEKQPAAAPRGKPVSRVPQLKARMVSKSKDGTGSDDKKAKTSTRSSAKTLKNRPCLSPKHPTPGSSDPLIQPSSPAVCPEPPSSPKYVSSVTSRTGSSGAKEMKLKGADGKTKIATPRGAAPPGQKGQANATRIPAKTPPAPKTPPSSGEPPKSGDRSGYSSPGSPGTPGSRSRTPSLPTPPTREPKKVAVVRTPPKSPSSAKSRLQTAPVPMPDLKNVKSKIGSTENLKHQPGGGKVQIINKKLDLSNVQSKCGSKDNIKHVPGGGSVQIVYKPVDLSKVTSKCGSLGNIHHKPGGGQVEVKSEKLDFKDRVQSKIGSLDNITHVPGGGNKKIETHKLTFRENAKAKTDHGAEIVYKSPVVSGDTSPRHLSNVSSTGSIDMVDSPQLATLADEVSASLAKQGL
Outline: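 Using a mix of unlabeled (15 uM) and Alexa 594-labeled (0.24 uM) tau K18 P301L, heparin-triggered fibrillization over 6 hr at 37 C was scored by ThT fluorescence.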
% is set by controls: 0 for no effect and ±100 for the full control effect; potency is the fitted concentration of half-maximal effect; tags give direction and shape of the fitted curve.
Note: nearly all actives have a fitted effect of over 55% in size.

Row | SMILES | activity, negative = inhibition | Potency
1 | Cc1ccc(NC(=O)C2CCN(S(=O)(=O)c3ccc4c(c3)CCCN4C(=O)C3CCC3)CC2)cc1 | inactive: -4.71% | 
2 | Cc1ccc(Cl)cc1NC(=O)C1CCN(C(=O)c2cnn(-c3ccccc3)c2-n2cccc2)CC1 |  | inconclusive: 44.7 µM [inhibitor, single point]
3 | Brc1ccc2c(c1)C(c1cccs1)=NNC(c1cccnc1)=N2 |  | inconclusive: 20 µM [inhibitor, single point]
4 | COc1ccccc1N1CCN(C(=O)c2ccc3nc(-c4ccco4)c(-c4ccco4)nc3c2)CC1 |  | inconclusive: 31.6 µM [inhibitor, partial curve]
5 | Cc1nc(CS(=O)(=O)c2ccccc2)cc(N2CCOCC2)n1 | inactive: -9.63% | 
6 | COc1ccc(C(=O)OC(C)C(=O)Nc2cc(C(F)(F)F)ccc2Cl)c(OC)c1OC (stereo unspecified) |  | inconclusive: 22.4 µM [inhibitor, single point]
7 | COc1ccc(C(=O)Nc2ccc3c(c2)Cc2ccccc2-3)cc1 |  | inconclusive: 0.891 µM [inhibitor, full curve]
8 | COc1cc(NC(=O)C/C(C)=N/NC(=O)C(=O)NC2CCCCC2)c(OC)cc1Cl |  | inconclusive: 15.8 µM [inhibitor, partial curve]
9 | CCOc1ccc(CCNC(=O)c2ccc3c(c2)nc2n3CCOC2)cc1OCC |  | inconclusive: 28.2 µM [inhibitor, single point]
10 | CC(=O)/C=C(\C)N=Nc1c(O)[nH]c2ccccc12 |  | active: 7.94 µM
11 | Cc1sc2nc(COC(=O)c3ccc(N4CCCC(C)C4)c([N+](=O)[O-])c3)[nH]c(=O)c2c1C (stereo unspecified) |  | inconclusive: 10 µM [inhibitor, partial curve]
12 | CCOc1cc(C2Nc3ccccc3C(=O)N2c2ccccc2)ccc1O (stereo unspecified) | inactive: -6.57% | 
13 | Cn1cnc2c(=O)oc3ccc(S(=O)(=O)N4CCN(c5ccccc5F)CC4)cc3c21 | inactive: 16.6% | 
14 | N#Cc1sc2nc(N3CCCCC3)c3c(c2c1N)CCCC3 |  | inconclusive: 31.6 µM [inhibitor, single point]
15 | Cc1cc(NC(=O)CSc2nc(CC(C)(C)C)nc3c2c(=O)n(C)c(=O)n3C)no1 |  | inconclusive: 10 µM [inhibitor, partial curve]
16 | CCOC(=O)c1ccc2c(c1)nc(SCC(=O)N1CCCCC1)n2CC |  | inconclusive: 22.4 µM [inhibitor, partial curve]
17 | CC(=O)c1ccc(NC(=O)c2cc(-c3ccc4c(c3)OCO4)on2)cc1 |  | inconclusive: 0.891 µM [inhibitor, full curve]
18 | Cc1ccc(N/C=C/C(=O)c2ccc(C)cc2)cc1 |  | inconclusive: 2.24 µM [inhibitor, full curve]
19 | O=C1/C(=C\c2ccc(O)cc2)SC(=S)N1c1cccnc1 |  | inconclusive: 0.282 µM [inhibitor, full curve]
20 | Cc1nnc(SCc2ccccc2Cl)c2cc3sccc3n12 |  | inconclusive: 15.8 µM [inhibitor, partial curve]
21 | CCCCCOc1ccc(NC(=O)Cc2csc(C)n2)cc1 |  | inconclusive: 28.2 µM [inhibitor, single point]
22 | COc1ccc(NS(=O)(=O)c2ccc3nc(COc4ccc(C#N)cc4)[nH]c3c2)cc1 |  | inconclusive: 11.2 µM [activator, partial curve, poor fit]

Row | SMILES | activity, negative = inhibition | Potency
23 | Cc1ccc(/C=C/C(=O)O)cc1S(=O)(=O)N1CCCCC1 | inactive: 0.811% | 
24 | Cc1ccc(OCC(=O)c2c[nH]c3ccccc23)c([N+](=O)[O-])n1 |  | inconclusive: 17.8 µM [inhibitor, partial curve]
25 | CCCc1[nH]nc2c1C(c1ccc(O)c(OC)c1)C(C#N)=C(N)O2 (stereo unspecified) |  | inconclusive: 11.2 µM [inhibitor, partial curve]
26 | COc1ccc(Oc2ncnc3c2ncn3Cc2ccccc2)cc1 | inactive: -5.32% | 
27 | COc1ccc(NC(=O)C(c2cc3c(cc2[N+](=O)[O-])OCO3)N2CCN(C=O)CC2)cc1 (stereo unspecified) |  | inconclusive: 12.6 µM [inhibitor, partial curve]
28 | COc1ccc2[nH]c(C)c(CCN3C(=O)OC(C)(C)C3(C)O)c2c1 (stereo unspecified) |  | inconclusive: 20 µM [inhibitor, partial curve]
29 | COc1cc(/C=N/NC(=O)c2cnccn2)ccc1O |  | inconclusive: 31.6 µM [inhibitor, single point]
30 | S=C(Nc1ccccc1)c1nc2ccccc2s1 |  | inconclusive: 3.98 µM [inhibitor, full curve]
31 | CCCCN1C(=O)/C(=C(/C#N)C(=O)N2CCCC2)c2ccccc21 |  | inconclusive: 14.1 µM [inhibitor, single point]
32 | O=C(O)CSCc1cnn(-c2ccccc2)c1-n1cccc1 |  | inconclusive: 31.6 µM [inhibitor, single point]
33 | COc1ccc(-c2cc3nc(C)c(CCC(=O)Nc4cccc(C(F)(F)F)c4)c(C)n3n2)c(OC)c1 | inactive: -8.02% | 
34 | CC(C)(C)c1csc(Sc2ccc([N+](=O)[O-])cn2)n1 |  | inconclusive: 11.2 µM [inhibitor, partial curve]
35 | CCn1c2ccc(C)cc2c2nc3cc(C(=O)O)ccc3nc21 |  | inconclusive: 25.1 µM [inhibitor, partial curve]
36 | COc1ccc(-c2[nH]c(-c3ccccc3)nc2SCC(=O)Nc2ccc3c(c2)OCCO3)cc1 |  | inconclusive: 11.2 µM [inhibitor, partial curve]
37 | CCOc1cc(C2NC(=O)c3c(sc4c3CCN(C)C4)N2)ccc1OC(=O)c1ccccc1Cl (stereo unspecified) |  | inconclusive: 22.4 µM [inhibitor, partial curve]
38 | COc1cc2cc(C(c3nnnn3C(C)(C)C)N3CCc4ccccc4C3)c(=O)[nH]c2cc1OC (stereo unspecified) |  | inconclusive: 39.8 µM [inhibitor, partial curve]
39 | CN(C)c1nc(NCc2ccccc2)nc(N/N=C/c2ccc(Br)cc2)n1 | inactive: 6.28% | 
40 | COc1ccc(-c2cn[nH]c2-c2ccc(OCc3ccc([N+](=O)[O-])cc3)cc2O)cc1OC |  | inconclusive: 15.8 µM [inhibitor, single point]
41 | O=C(CN1CCN(c2ccccn2)CC1)Nc1cc(C(F)(F)F)ccc1Cl |  | inconclusive: 15.8 µM [inhibitor, partial curve]
42 | Cc1ccc(CNC(=O)C2c3ccccc3C(=O)N3CCc4ccccc4C23)o1 (stereo unspecified) |  | inconclusive: 35.5 µM [inhibitor, partial curve]
43 | Cn1c(Cl)c(/C=N/OC(=O)C2CC2)c2ccccc21 |  | inconclusive: 20 µM [inhibitor, single point]
44 | COc1cc(/C=N/Nc2ncnc3sc4c(c23)CCC4)ccc1O |  | inconclusive: 1.12 µM [inhibitor, full curve]

Row | SMILES | activity, negative = inhibition | Potency
45 | O=C(O)c1ccc(N[C@@H]2OC[C@@H](O)[C@@H](O)[C@@H]2O)cc1 | inactive: -10% | 
46 | COc1cc(OC)c(NC(=O)C(NS(=O)(=O)c2cccc3nsnc23)c2ccccc2)cc1Cl (stereo unspecified) | inactive: -12.1% | 
47 | Cc1nnc2c3cnn(-c4ccc(Cl)cc4)c3ncn12 |  | inconclusive: 3.16 µM [inhibitor, partial curve]
48 | O=C(/C=C/c1cccnc1)c1ccc(NC(=O)c2cccc(Br)c2)cc1 |  | inconclusive: 6.31 µM [inhibitor, partial curve]
49 | CCCOc1ccc(N2C(=O)CC(N3CCOCC3)C2=O)cc1 (stereo unspecified) | inactive: -13.9% | 
50 | O=C(COc1cccc(NC(=O)c2cccc([N+](=O)[O-])c2)c1)c1ccc(F)cc1 |  | inconclusive: 31.6 µM [inhibitor, single point]
51 | Cc1ccccc1Nc1cc2ccccc2c(=O)[nH]1 |  | inconclusive: 22.4 µM [inhibitor, partial curve]
52 | COc1ccc(/C=N/n2c(-c3ccc(C)cc3)n[nH]c2=S)cc1OC | inactive: 1.95% | 
53 | N#Cc1c(-c2ccc(F)cc2)cc(-c2ccccc2)nc1SCC(=O)NCC(=O)O |  | inconclusive: 39.8 µM [inhibitor, single point]
54 | Cc1ccc(NC(=O)CSc2nc3ccccc3c3nc(CCc4c(C)n[nH]c4C)nn23)c(C)c1 |  | inconclusive: 10 µM [inhibitor, partial curve]
55 | COC(=O)C1CCN(c2ccc([N+](=O)[O-])cc2[N+](=O)[O-])CC1 |  | inconclusive: 14.1 µM [inhibitor, partial curve]
56 | COC1=CC(=O)C(O)=C/C1=C\C=C\c1ccccc1 |  | active: 7.94 µM
57 | Cc1ccccc1-n1c(C)cc(/C=C2\NC(=O)NC2=O)c1C | inactive: -0.6% | 
58 | COc1ccc(NC(=O)N(C2CCCCC2)C(C)c2ccco2)c(OC)c1 (stereo unspecified) |  | inconclusive: 2.24 µM [inhibitor, partial curve, poor fit]
59 | CCc1nnc(NC(=O)CSc2nc(C)c3c(c2C#N)CCCC3)s1 |  | inconclusive: 12.6 µM [inhibitor, partial curve]
60 | COc1ccc(-c2noc(CSc3nnc(Cc4ccccc4)n3-c3ccccc3)n2)cc1OC |  | inconclusive: 31.6 µM [inhibitor, single point]
61 | CCOC(=O)c1cc(-c2ccccc2)n(CC(=O)NC2CCC(C)CC2)c1C (stereo unspecified) | inactive: 2.26% | 
62 | O=C(COc1ccc2ccccc2c1)Nc1nnc(-c2ccco2)s1 |  | inconclusive: 0.224 µM [inhibitor, full curve]
63 | Cc1cc(C2=NNC(=NC3CC3)SC2)c(C)n1-c1c(C)n(C)n(-c2ccccc2)c1=O |  | inconclusive: 11.2 µM [inhibitor, partial curve]
64 | O=C(CCS(=O)(=O)c1cccc2nsnc12)NCc1ccccc1Cl |  | inconclusive: 17.8 µM [inhibitor, single point]
65 | COc1ccc(/C=N/NC(=O)CC(=O)NCc2cccnc2)c(OC)c1 | inactive: -2.6% | 
66 | CC(C)Oc1ccc2c(=O)c(-c3ccccc3)coc2c1 |  | inconclusive: 28.2 µM [inhibitor, partial curve] and inconclusive: 31.6 µM [inhibitor, single point]
